# The list shows a part of the results. The full chains were built here from the parent and the listed change. Values near 0.05 are background.
# B1: TEV protease; numbered along this chain (parent)
# chain: MGESLFKGPRDYNPISSSICHLTNESDGHTTSLYGIGFGPFIITNKHLFRRNNGTLVVQSLHGVFKVKDTTTLQQHLVDGRDMIIIRMPKDFPPFPQKLKFREPQREERICLVTTNFQTKSMSSMVSDTSCTFPSGDGIFWKHWIQTKDGQCGSPLVSTRDGFIVGIHSASNFTNTNNYFTSVPKNFMELLTNQEAQQWVSGWRLNADSVLWGGHKVFMVKPEEPFQPVKEATQL
# Variants of: B1
# Assay: raw area under fraction-flipped curve 0-4 h after induction (AUC4h, not background-subtracted), DNA-recorder readout of cleavage of the substrate (dimensionless); higher = more cleavage of the substrate by the protease variant
# Conditions: temperature: 34 °C; time window: 0-4 h after rhamnose induction
# Method: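 In vivo DNA recorder in E. coli TOP10(DE3) ΔrhaA at 34 °C. Each TEVp single-site mutant (parent TEVp 0) is paired with a single-site variant of the 7-mer TEVs (canonical ENLYFQ|S). The substrate sits between flexible linkers in a Bxb1-sfGFP-TEVs-SsrA fusion, so cleavage stabilises Bxb1 and speeds flipping of a recombination array, read by NGS. The value is the raw area under the fraction-flipped curve over 0-4 h after rhamnose induction (AUC4h), with ≥20 reads per time point. It is not background-subtracted; inactive controls average about 0.047.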
# 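Also: Bxb1 expression induced with 0.2% (w/v) L-rhamnose at OD600 near 0.5, cultures sampled hourly, flipped fraction per protease–substrate barcode pair counted by paired-end Illumina sequencing.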
Variant,area with substrate ENLYFQA,area with substrate ENLYFQD,area with substrate ENLYFQG,area with substrate ENLYFQM,area with substrate ENLYFQN,area with substrate ENLYFQQ,area with substrate ENLYFQS,area with substrate ENLYFQT,area with substrate ENLYFQV,area with substrate ENLYFQI,area with substrate ENLYFQK,area with substrate ENLYFQL,area with substrate ENLYFQR,area with substrate ENLYFQC,area with substrate ENLYFQH,area with substrate ENLYFQW,area with substrate ENLYFQY,area with substrate ENLYFQE,area with substrate ENLYFQF,area with substrate ENLYFQP
T119M,0.0807,0.0902,0.0814,0.111,0.0754,0.0737,0.0955,0.0494,0.0596,–,–,–,–,–,–,–,–,–,–,–
R106P,0.0999,0.0846,–,0.0908,–,–,0.106,–,0.0644,0.0588,0.0631,0.0584,0.0306,–,–,–,–,–,–,–
R106K,0.0926,–,–,0.102,0.0853,–,0.104,–,–,–,0.062,0.0767,–,0.12,0.0906,0.072,0.101,–,–,–
R106G,0.131,–,–,–,–,–,0.0881,–,–,0.0587,–,–,0.0567,0.0966,0.0559,0.066,–,–,–,–
R106Q,0.0904,–,0.0843,0.0819,0.101,–,0.101,0.0578,0.0738,0.0614,0.0699,0.0593,0.077,0.164,0.0807,0.0631,0.0916,0.0753,0.081,0.0561
G150C,0.0688,–,0.057,0.0422,0.0581,0.0516,0.0611,0.0627,0.0736,0.0569,0.0586,0.0597,0.0584,0.0642,0.0783,0.0591,0.0676,0.0573,0.0653,0.0661
G150T,0.0628,0.0554,0.0598,0.0686,0.0582,0.0694,0.0605,0.0587,–,0.0602,0.0524,0.061,0.0583,0.0575,0.0599,0.0486,0.0579,–,0.0576,0.0548
T132D,0.0592,0.037,0.0555,0.056,0.0544,0.0473,0.0582,0.054,0.0449,0.0428,0.0483,0.0535,0.052,0.0688,0.0727,0.0495,0.0615,0.0617,0.0853,0.0281
R160E,0.101,0.0737,–,0.0799,0.0913,–,0.103,0.0714,–,0.0555,0.0629,–,0.0667,0.125,–,0.0635,0.128,–,–,–
R160G,0.121,0.0549,0.124,–,0.0769,0.0618,0.112,–,0.0602,0.0541,0.0465,0.0591,0.0573,0.179,0.0838,0.0644,0.0736,–,–,0.0649
R160F,0.141,0.103,0.0993,0.102,0.0748,0.075,0.115,0.0644,0.0705,0.0637,0.0719,–,–,–,0.0921,–,0.122,0.0713,0.0823,0.0531
L112A,0.0797,0.0656,0.0861,0.0655,0.0663,–,0.083,0.0588,–,0.0547,0.0475,0.0579,0.0546,0.0768,–,0.0598,0.0497,–,0.0539,0.0653
L112D,0.0615,–,–,0.0612,–,–,0.059,0.0574,0.0565,0.0528,–,–,–,0.0569,0.0625,0.0457,0.0646,–,–,0.061
L112M,0.113,–,0.103,0.0918,–,–,0.102,0.0666,0.0517,0.0511,0.0907,0.0584,–,0.103,0.0849,0.0632,–,–,0.0908,–
L112G,0.0603,–,0.059,0.0645,–,0.0582,0.0676,0.0567,0.0576,0.0618,0.0781,0.0532,0.0578,0.0725,0.0632,–,–,–,–,–
L112K,0.113,–,0.1,0.087,0.0782,0.0709,0.0988,0.068,0.0658,0.0613,0.0518,0.0611,0.0519,0.102,0.0921,0.0657,–,–,–,0.055
K142Y,0.0966,–,–,0.0913,–,–,0.0974,0.0757,–,0.0611,0.0599,0.0558,0.0813,0.115,–,–,–,–,0.0655,0.0539
S124K,0.11,0.0686,0.115,0.083,0.0797,0.0835,0.11,0.0607,–,0.0762,0.0613,0.0543,0.0586,0.119,0.0953,–,0.0649,–,0.0824,0.0507
S121Q,0.107,–,0.0983,0.104,–,–,0.106,0.0699,0.0648,0.0633,0.0489,0.0611,0.0474,0.128,–,0.0606,0.0913,0.0865,0.081,–
P104V,0.0938,0.0449,–,0.0767,0.0689,–,0.0955,0.0607,0.0597,–,0.0442,0.0495,0.0662,0.122,–,0.0634,0.0735,–,–,0.0453
P104S,0.0596,0.054,0.0532,0.054,0.0514,–,0.0569,0.0553,0.0452,0.0386,0.0583,0.0205,0.0489,0.0541,–,0.032,0.052,–,0.0539,–
K120N,0.1,–,–,–,0.0716,–,0.0966,0.0635,–,0.0538,–,0.0447,0.056,0.0845,0.0663,–,0.0825,0.0653,–,–
K120V,0.0968,–,0.0911,0.0874,0.0882,0.0593,0.0998,0.0731,0.0058,0.0589,0.0679,–,0.0438,–,–,–,–,–,–,0.0897
K120D,0.0875,–,0.0915,0.0745,0.0752,0.078,0.0922,0.0668,–,0.0609,0.0528,0.0567,0.0603,–,–,–,0.0728,–,–,–
K120I,0.101,0.0728,0.075,0.0819,0.065,–,0.092,0.0494,–,0.0723,–,0.0874,0.0485,–,0.0756,0.0821,–,–,–,–

# Reference: the supplement of paper PMC12217912
